Laboratory results from the supplement of paper PMC10126150.
Values marked as one replicate rest on one cluster of the flow cell; about a third of the high ones do not repeat.

Tested on: ATP
Assay: switch fluorescence ratio, 500 uM ATP over buffer (Cy3 cluster intensity, sum of 5 cycles each) (fold (ratio)); higher = stronger signal-on switching upon ATP binding; sequences stand for … in TCGTCGGCAGCGTCAGATGTGTATAAGAGACAGTTTTTTTTTTTTTTTTTTTTTTTTT…TC
Details: aptamer strand: ATP DNA aptamer (quencher-CACCTGGGGGAGTATTGCGGAGGAAGG + anchor), 100 nM annealed; ATP concentration: 500 uM; one replicate
How it was run: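 Per cluster, summed Cy3 intensity from the target cycles was divided by that from the buffer cycles to give the fluorescence ratio, then averaged per switch-domain sequence. Clusters outside 100-1000 RFU were excluded. The Cy3-labelled switching-strand clusters, on a modified Illumina MiSeq flow-cell, were annealed to 100 nM quencher-labelled ATP aptamer and imaged in selection buffer, then after 15 min with 500 uM ATP at 22 °C, for five cycles with NaOH stripping and re-annealing between them.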
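Note: ATP exposure 15 min at 22 °C before imaging.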

**Q.** With ATGTGAGCCT as the sequence, how does the switch fluorescence ratio read?
**A.** 1.01

**Q.** For ATGTGAGTGA, which switch fluorescence ratio is on record?
**A.** 1.03

**Q.** With ATGTGGAACT as the sequence, how does the switch fluorescence ratio read?
**A.** 0.966

**Q.** For ATGTGGATAA, which switch fluorescence ratio is on record?
**A.** 0.954

**Q.** For ATGTGTCTCT, which switch fluorescence ratio is on record?
**A.** 0.989

**Q.** With ATGTGTGTGC as the sequence, how does the switch fluorescence ratio read?
**A.** 0.987

**Q.** Which switch fluorescence ratio does the source give for ATGTTACTT here?
**A.** 1.04

**Q.** How did the switch fluorescence ratio turn out when ATGTTAGAGC was run?
**A.** 1.01

**Q.** For ATGTTCAATG, which switch fluorescence ratio is on record?
**A.** 1.01

**Q.** ATGTTCAGGT was tested. Which switch fluorescence ratio did it give?
**A.** 1.04

**Q.** How did the switch fluorescence ratio turn out when ATGTTGGTGC was run?
**A.** 0.988

**Q.** Which switch fluorescence ratio does the source give for ATGTTTGGA here?
**A.** 1.02

**Q.** ATGTTTTCAT was tested. Which switch fluorescence ratio did it give?
**A.** 0.956

**Q.** With ATTAAAATT as the sequence, how does the switch fluorescence ratio read?
**A.** 0.992

**Q.** ATTAAACGTT was tested. Which switch fluorescence ratio did it give?
**A.** 1.01

**Q.** For ATTAAAGCAT, which switch fluorescence ratio is on record?
**A.** 1.02

**Q.** Which switch fluorescence ratio does the source give for ATTAAAGCCA here?
**A.** 1.01

**Q.** With ATTAAATGGA as the sequence, how does the switch fluorescence ratio read?
**A.** 1.04

**Q.** Which switch fluorescence ratio does the source give for ATTAACATTG here?
**A.** 0.999

**Q.** How did the switch fluorescence ratio turn out when ATTAACTCAT was run?
**A.** 1.06

**Q.** ATTAAGCCCC was tested. Which switch fluorescence ratio did it give?
**A.** 1.01

**Q.** Which switch fluorescence ratio does the source give for ATTAAGCCTG here?
**A.** 0.96

**Q.** How did the switch fluorescence ratio turn out when ATTAAGCTTC was run?
**A.** 1.07

**Q.** Which switch fluorescence ratio does the source give for ATTAATAAAA here?
**A.** 0.824

**Q.** How did the switch fluorescence ratio turn out when ATTAATCCTA was run?
**A.** 1.01

**Q.** Which switch fluorescence ratio does the source give for ATTAATCTTT here?
**A.** 1.01

**Q.** Which switch fluorescence ratio does the source give for ATTACAATAT here?
**A.** 1.04

**Q.** ATTACACGC was tested. Which switch fluorescence ratio did it give?
**A.** 1.02

**Q.** ATTACAGTTA was tested. Which switch fluorescence ratio did it give?
**A.** 1.01

**Q.** With ATTACCAAAA as the sequence, how does the switch fluorescence ratio read?
**A.** 1.02

**Q.** How did the switch fluorescence ratio turn out when ATTACCATGG was run?
**A.** 1.08

**Q.** For ATTACGCATT, which switch fluorescence ratio is on record?
**A.** 1.38

**Q.** Which switch fluorescence ratio does the source give for ATTACGCGTG here?
**A.** 0.996

**Q.** With ATTACGTCTG as the sequence, how does the switch fluorescence ratio read?
**A.** 1.04

**Q.** Which switch fluorescence ratio does the source give for ATTACTAGAC here?
**A.** 1.12

**Q.** For ATTACTTTGA, which switch fluorescence ratio is on record?
**A.** 1.07

**Q.** ATTAGCACC was tested. Which switch fluorescence ratio did it give?
**A.** 1.04

**Q.** How did the switch fluorescence ratio turn out when ATTAGCCGGT was run?
**A.** 0.969

**Q.** How did the switch fluorescence ratio turn out when ATTAGCGCAG was run?
**A.** 1

**Q.** With ATTAGGACT as the sequence, how does the switch fluorescence ratio read?
**A.** 0.973

**Q.** How did the switch fluorescence ratio turn out when ATTAGGATGC was run?
**A.** 1.02

**Q.** Which switch fluorescence ratio does the source give for ATTAGGCAGG here?
**A.** 1.04

**Q.** How did the switch fluorescence ratio turn out when ATTAGGGTGT was run?
**A.** 1.05

**Q.** ATTAGTCCGT was tested. Which switch fluorescence ratio did it give?
**A.** 1.01

**Q.** With ATTAGTGAGG as the sequence, how does the switch fluorescence ratio read?
**A.** 1.01

**Q.** For ATTATAATTG, which switch fluorescence ratio is on record?
**A.** 0.981

**Q.** ATTATACTTA was tested. Which switch fluorescence ratio did it give?
**A.** 1.02

**Q.** For ATTATAGAAC, which switch fluorescence ratio is on record?
**A.** 0.961

**Q.** Which switch fluorescence ratio does the source give for ATTATAGTGT here?
**A.** 0.975

**Q.** How did the switch fluorescence ratio turn out when ATTATCAGTA was run?
**A.** 0.995

**Q.** How did the switch fluorescence ratio turn out when ATTATCATAC was run?
**A.** 1.02

**Q.** For ATTATGAAAA, which switch fluorescence ratio is on record?
**A.** 1.04

**Q.** ATTATGGCAG was tested. Which switch fluorescence ratio did it give?
**A.** 0.997

**Q.** With ATTATGTAC as the sequence, how does the switch fluorescence ratio read?
**A.** 1.09

**Q.** ATTATGTATA was tested. Which switch fluorescence ratio did it give?
**A.** 1.07

**Q.** How did the switch fluorescence ratio turn out when ATTATTAGTG was run?
**A.** 1.01

**Q.** For ATTATTTGAG, which switch fluorescence ratio is on record?
**A.** 0.976

**Q.** With ATTCAAATTG as the sequence, how does the switch fluorescence ratio read?
**A.** 1.07

**Q.** For ATTCAACCCG, which switch fluorescence ratio is on record?
**A.** 1.03

**Q.** ATTCAAGCCA was tested. Which switch fluorescence ratio did it give?
**A.** 1.04

**Q.** With ATTCAAGGA as the sequence, how does the switch fluorescence ratio read?
**A.** 0.971

**Q.** Which switch fluorescence ratio does the source give for ATTCAATTGG here?
**A.** 1.01

**Q.** ATTCAGAGTA was tested. Which switch fluorescence ratio did it give?
**A.** 0.969

**Q.** ATTCAGCGGA was tested. Which switch fluorescence ratio did it give?
**A.** 0.985

**Q.** For ATTCAGGGTT, which switch fluorescence ratio is on record?
**A.** 0.996

**Q.** For ATTCATCCTG, which switch fluorescence ratio is on record?
**A.** 0.984

**Q.** With ATTCCTCTCG as the sequence, how does the switch fluorescence ratio read?
**A.** 1.93

**Q.** For ATTCCTTTGC, which switch fluorescence ratio is on record?
**A.** 1.68

**Q.** Which switch fluorescence ratio does the source give for ATTCGACC here?
**A.** 1.01

**Q.** Which switch fluorescence ratio does the source give for ATTCGCATCT here?
**A.** 1.14

**Q.** ATTCGGTCGT was tested. Which switch fluorescence ratio did it give?
**A.** 1

**Q.** With ATTCGGTGAA as the sequence, how does the switch fluorescence ratio read?
**A.** 0.985

**Q.** How did the switch fluorescence ratio turn out when ATTCGTAAGG was run?
**A.** 0.978

**Q.** How did the switch fluorescence ratio turn out when ATTCGTACGT was run?
**A.** 1.04

**Q.** For ATTCGTATCC, which switch fluorescence ratio is on record?
**A.** 0.977

**Q.** For ATTCGTCCAT, which switch fluorescence ratio is on record?
**A.** 1.01

**Q.** How did the switch fluorescence ratio turn out when ATTCGTTGTC was run?
**A.** 1.02

**Q.** For ATTCTACTAG, which switch fluorescence ratio is on record?
**A.** 1.01

**Q.** How did the switch fluorescence ratio turn out when ATTCTATGGA was run?
**A.** 1.03

**Q.** ATTCTCGCTT was tested. Which switch fluorescence ratio did it give?
**A.** 1.01

**Q.** Which switch fluorescence ratio does the source give for ATTCTGACG here?
**A.** 1.05

**Q.** For ATTCTGGCCT, which switch fluorescence ratio is on record?
**A.** 1.07

**Q.** ATTCTGGGGC was tested. Which switch fluorescence ratio did it give?
**A.** 0.989

**Q.** For ATTGACCTGT, which switch fluorescence ratio is on record?
**A.** 1.05

**Q.** For ATTGAGAATG, which switch fluorescence ratio is on record?
**A.** 0.992

**Q.** With ATTGATATGT as the sequence, how does the switch fluorescence ratio read?
**A.** 1

**Q.** How did the switch fluorescence ratio turn out when ATTGATGGA was run?
**A.** 1.01

**Q.** Which switch fluorescence ratio does the source give for ATTGATGTGT here?
**A.** 1.03

**Q.** ATTGATTTTA was tested. Which switch fluorescence ratio did it give?
**A.** 1

**Q.** For ATTGCAAATA, which switch fluorescence ratio is on record?
**A.** 0.99

**Q.** ATTGCACAGG was tested. Which switch fluorescence ratio did it give?
**A.** 1.43

**Q.** Which switch fluorescence ratio does the source give for ATTGCAGGTG here?
**A.** 2.75

**Q.** Which switch fluorescence ratio does the source give for ATTGCAGTGT here?
**A.** 0.979

**Q.** How did the switch fluorescence ratio turn out when ATTGCATTA was run?
**A.** 0.972

**Q.** ATTGCCAATG was tested. Which switch fluorescence ratio did it give?
**A.** 0.96

**Q.** ATTGCCCGGT was tested. Which switch fluorescence ratio did it give?
**A.** 1.02

**Q.** With ATTGCTTA as the sequence, how does the switch fluorescence ratio read?
**A.** 1.03

**Q.** For ATTGCTTCTG, which switch fluorescence ratio is on record?
**A.** 1.1

**Q.** With ATTGCTTG as the sequence, how does the switch fluorescence ratio read?
**A.** 1.04

**Q.** For ATTGGAGGCG, which switch fluorescence ratio is on record?
**A.** 0.992

**Q.** How did the switch fluorescence ratio turn out when ATTGGATGAC was run?
**A.** 1.01
